Reference: the supplement of paper PMC3334620
Over roughly 33,000 sequences, “E-score (-0.5 to 0.5)” has its median near -0.056; the highest 2% begin near 0.38. The list shows a part of the results.

These sequences were tested against Stb4 (UniProt P50104) (assay: PBM E-score (8-mer binding enrichment) (E-score (-0.5 to 0.5)); higher = stronger / more preferred TF binding; most listed sequences are background and not binding sites). Conditions: protein concentration: 200 nM; construct: GST-DNA-binding domain.
Procedure: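 Universal 'all 10-mer' protein binding microarrays (Agilent AMADID 015681) probed with GST-tagged S. cerevisiae TFs (full-length or DBD) made by in vitro transcription/translation (PURExpress), about 100-200 nM. Bound TF was detected with fluorescent anti-GST. Each ungapped 8-mer (which stands for itself and its reverse complement) is scored by the PBM enrichment score (E-score), a modified Wilcoxon-Mann-Whitney statistic from -0.5 to +0.5, computed with the Universal PBM Analysis Suite. Scale: above 0.35 generally sequence-specific binding.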

| Sequence | PBM E-score |
| --- | --- |
| ATCAGCGA | -0.0379 |
| CTTATGGA | -0.0602 |
| AAAGCGCG | -0.00999 |
| AAGTCTGC | -0.241 |
| TGTTTCAA | -0.0915 |
| ATTTCCGA | 0.47 |
| CTAGACCC | -0.0629 |
| GCAATATA | -0.035 |
| AACAAAGA | -0.0512 |
| AAACAGCA | 0.0525 |
| CTGTGCGA | -0.289 |
| CTGGAGTA | -0.239 |
| CAGGCTGG | -0.16 |
| CTAATCCC | 0.00624 |
| AAGCACAC | -0.171 |
| CTATCGGA | 0.423 |
| ATCCCGGC | 0.323 |
| AAACCTCC | -0.00783 |
| AGTTCTGC | -0.064 |
| ACTAATAA | -0.107 |
| CGCGTACG | 0.123 |
| ATGGGCTC | -0.185 |
| ACTCCGAT | 0.242 |
| CGATCTAG | -0.164 |
| AGACCTTG | -0.312 |

| Sequence | PBM E-score |
| --- | --- |
| CGTGAGTC | -0.168 |
| GCTACGGA | 0.17 |
| CAACACGC | -0.0694 |
| CGCCCATC | -0.0172 |
| AGACTTCG | -0.113 |
| ACCCCCAA | -0.224 |
| ACGCCTAA | -0.146 |
| AACTGGAG | -0.0545 |
| ATAGAAAC | 0.0344 |
| CCGGTACC | 0.268 |
| AACGTATC | -0.144 |
| AGGTCTGC | -0.213 |
| GTAACGGA | 0.281 |
| AAGAGCTT | -0.00466 |
| GTAAGGAC | 0.0178 |
| ACAGGACG | -0.225 |
| GTTTAAAC | 0.193 |
| CTGCGCCA | -0.0674 |
| AACTTCGC | -0.041 |
| TGTCCGAA | 0.35 |
| AGGTTGAG | -0.325 |
| ATAATGAC | 0.00969 |
| AACCTCTA | 0.0232 |
| CTGTTTTC | -0.0458 |
| ACAGGAGC | -0.101 |

| Sequence | PBM E-score |
| --- | --- |
| CCAGCAGG | -0.251 |
| GTGCGGTA | 0.0888 |
| AGCTCAAT | -0.111 |
| AGTAGAGC | -0.181 |
| CTTACTCA | 0.0099 |
| GCGTGCCA | 0.0339 |
| ATACTATC | 0.0489 |
| GATTCCAA | -0.124 |
| CCCAGGAC | -0.13 |
| CGTGTAAG | -0.166 |
| TATGACCA | 0.0287 |
| AATACTAC | 0.0628 |
| ACGCTATC | -0.0815 |
| AGTAGACG | -0.0988 |
| GAAGTGTA | -0.107 |
| CCTCCGTC | 0.0222 |
| CGGGAAAG | 0.319 |
| ACGGTCAT | -0.0289 |
| CTCTGACC | -0.188 |
| CTTCTGTC | -0.158 |
| CGCATTTC | 0.138 |
| ACATGTAC | -0.0826 |
| GCTCGTCA | -0.134 |
| GGCTAACC | 0.193 |
| CTAATGTA | -0.0543 |

| Sequence | PBM E-score |
| --- | --- |
| GAAGAAAC | -0.0469 |
| ACAGCTAC | -0.102 |
| AAACTAAA | -0.131 |
| GTAGGTAA | -0.0429 |
| TAACCACA | -0.241 |
| ATAACGCA | -0.0729 |
| TGTAAACA | -0.141 |
| CATCGCTA | -0.195 |
| CCGGAAAG | 0.366 |
| GATGAAGA | 0.0446 |
| GGCTCCAA | -0.00749 |
| AGAGTGGC | -0.161 |
| ATCGCATC | 0.0786 |
| GAGCCCGC | 0.00267 |
| AGTCTGTA | -0.196 |
| ATAGACCC | 0.197 |
| CAGTCGAC | -0.114 |
| ACCCATGA | -0.0426 |
| ACCCCCGA | 0.317 |
| GCATACCA | -0.0344 |
| TGGATCAA | -0.243 |
| ACGGATGC | 0.298 |
| CCAAATCA | -0.122 |
| CACGGAGC | 0.174 |
| GGACGTAA | -0.0839 |

| Sequence | PBM E-score |
| --- | --- |
| GGGAACTA | 0.183 |
| AAGGACAG | -0.0955 |
| ATATCGTA | -0.0422 |
| GTTAGGTA | -0.2 |
| CTGCGAAC | -0.298 |
| AGATATAC | -0.095 |
| AATGGAGG | -0.154 |
| ATAGAGCC | 0.0655 |
| ACAGGAGG | -0.123 |
| GCGACGGA | 0.245 |
| GTAGTAAA | -0.0798 |
| ACAACTAC | -0.113 |
| GGGGCCTA | -0.182 |
| CTATCAAG | -0.266 |
| GTCTTCAC | -0.112 |
| GTCTTCCA | -0.181 |
| ATAATTAC | 0.0147 |
| ACGATAAT | -0.132 |
| ACATAATG | 0.0642 |
| GCACGTAA | 0.0234 |
| CGCTATAG | -0.148 |
| ATCCGCAG | 0.285 |
| AAAGGAGA | -0.293 |
| GGAAGCGA | 0.198 |
| GCTTGACC | -0.0331 |

| Sequence | PBM E-score |
| --- | --- |
| ACCGGCTA | 0.311 |
| AAGGATAA | -0.0289 |
| AGAAACGC | -0.104 |
| ATGTCCGG | 0.253 |
| GGCAGGTA | 0.111 |
| CCAAGGTA | -0.168 |
| AAAGACTC | -0.145 |
| GTGTTAAA | -0.102 |
| ATATTAGA | -0.0989 |
| CCATGCCG | 0.228 |
| CGAAACTC | 0.229 |
| ATAGACTG | -0.213 |
| AGCAGGAA | -0.193 |
| CCGGAACG | 0.424 |
| AAGGATCT | -0.232 |
| CTGTGATA | -0.0568 |
| ATCCGAAT | 0.48 |
| CGTCGTCA | -0.0271 |
| TCGAACCA | -0.236 |
| GCTCGTAC | -0.0377 |
| GGCGGTTA | 0.0844 |
| ACCGATTC | 0.165 |
| GCAAGAGA | -0.173 |
| AGTCAGGC | -0.0872 |
| GAATCATC | 0.0284 |

| Sequence | PBM E-score |
| --- | --- |
| CATCTGAA | 0.00559 |
| CTGTGGTC | -0.144 |
| AGCATTAA | -0.0145 |
| ACGCGCGC | -0.12 |
| AAACCCCA | -0.204 |
| CTATCAGA | 0.0798 |
| ACCTCTAA | 0.046 |
| AGGCTGGG | -0.236 |
| AATACATG | 0.0132 |
| CGATATTC | 0.293 |
| ACGACCAG | -0.239 |
| TGTATTAA | -0.134 |
| ATTGATAC | 0.114 |
| CACATAAA | -0.144 |
| CAACACTC | -0.0329 |
| GGTGTGAC | -0.135 |
| GCCGTGTA | 0.026 |
| CGCCCATA | -0.021 |
| TAGTCAGA | -0.267 |
| GAGTCAAA | -0.0124 |
| AGCTAAGA | -0.055 |
| ACTGTTGC | 0.071 |
| GCCGACCC | 0.335 |
| ACGTCATC | -0.178 |
| CATTCTCG | 0.111 |

| Sequence | PBM E-score |
| --- | --- |
| CCATGGGC | -0.0806 |
| ACCCAGCC | -0.048 |
| CATGATCC | 0.172 |
| GCGCCGAA | 0.388 |
| GGCGGTCA | 0.171 |
| TAGTTAAA | 0.0473 |
| CCTACCTA | -0.142 |
| AAAGCCGA | 0.322 |
| CCGTGGGA | -0.0683 |
| CAGAGCCC | -0.0541 |
| TTGCCCAA | -0.284 |
| GTCGAGAC | 0.0445 |
| CGAGCGAA | 0.0313 |
| CGTCGTAG | 0.0791 |
| CTGAACTA | -0.063 |
| CCTTGACC | 0.0483 |
| GGCGAGAA | -0.00888 |
| AGTCCGTG | 0.0282 |
| GAGGGTCC | 0.201 |
| AACTCATG | -0.104 |
| ACGGCACG | 0.174 |
| CGTATGTA | -0.0767 |
| TACTCACA | -0.213 |
| AATTGCAG | -0.0545 |
| CGCTCAGC | -0.0683 |

| Sequence | PBM E-score |
| --- | --- |
| CGAGTGAA | 0.185 |
| CGTCTGCA | -0.122 |
| GAAATGTA | 0.254 |
| AGATGTTA | -0.112 |
| TGAATTCA | -0.215 |
| GGACATCA | -0.0449 |
| AAAAAGTT | 0.00642 |
| AAACGCCT | -0.0415 |
| CAGATACG | 0.0185 |
| AGATATGA | -0.0877 |
| GATCGTGA | 0.0553 |
| CCACGTCA | -0.308 |
| CCCCGCAC | -0.0073 |
| AATGTAAC | 0.101 |
| AGCAAATC | -0.0388 |
| GGAGAGGA | -0.0849 |
| TAAATGTA | -0.172 |
| GAGGGTTA | -0.107 |
| AGGGTCAC | -0.2 |
